# Data as given in the BET-seq Pho4 binding data (Le et al. 2018).
# This is one part of the list. These are noisy estimates, calculated here from bound and input reads.
# Target: T1, Pho4 (S. cerevisiae) (UniProt P07270)
# T1 sequence: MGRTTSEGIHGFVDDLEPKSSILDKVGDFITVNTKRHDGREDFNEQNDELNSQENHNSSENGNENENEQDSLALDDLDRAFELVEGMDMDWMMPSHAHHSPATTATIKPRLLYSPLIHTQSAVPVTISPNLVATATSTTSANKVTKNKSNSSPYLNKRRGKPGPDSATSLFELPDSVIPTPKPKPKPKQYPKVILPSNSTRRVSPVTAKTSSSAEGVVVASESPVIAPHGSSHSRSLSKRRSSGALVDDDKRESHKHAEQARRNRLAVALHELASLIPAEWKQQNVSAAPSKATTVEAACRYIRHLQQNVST
# Test: relative binding free energy (BET-seq); higher = weaker binding
# Conditions: reference: library average
row,Sequence,relative binding free energy
1,AGTTACACGTGTAGTT,0.14 kcal/mol
2,AAATGCACGTGTGATG,0.12 kcal/mol
3,GTAGGCACGTGTGTGA,0.01 kcal/mol
4,GCTATCACGTGTTTTA,0.22 kcal/mol
5,TCGTTCACGTGATGGG,0.36 kcal/mol
6,GTTGACACGTGATGTT,0.17 kcal/mol
7,AGAATCACGTGGTAGT,0.26 kcal/mol
8,CGATGCACGTGTTTTA,0.03 kcal/mol
9,GGGGTCACGTGGCGAG,0.01 kcal/mol
10,TGTAGCACGTGTAAAG,0.06 kcal/mol
11,TGTAACACGTGGAGTT,-0.01 kcal/mol
12,GGTGGCACGTGGGCAG,-0.1 kcal/mol
13,CGTGGCACGTGAATTT,0.15 kcal/mol
14,TGGGTCACGTGAGCTC,0.26 kcal/mol
15,ATTGTCACGTGGCTTG,0.13 kcal/mol
16,TATGCCACGTGAGGGT,0.17 kcal/mol
17,GGTATCACGTGTTTTC,0.17 kcal/mol
18,GTAGCCACGTGGGTAG,-0.12 kcal/mol
19,CTTGGCACGTGCTTGA,-0.08 kcal/mol
20,ATTGTCACGTGTTTCG,0.03 kcal/mol
21,CTGTTCACGTGGCTGT,0.09 kcal/mol
22,TGAGGCACGTGGGGCC,-0.08 kcal/mol
23,GGCGTCACGTGGGAGC,0.09 kcal/mol
24,GTGAACACGTGGGTGC,-0.04 kcal/mol
25,TGCTTCACGTGTAGGG,0.16 kcal/mol
26,CAAGTCACGTGAGGGG,0.23 kcal/mol

row,Sequence,relative binding free energy
1,AGGTTCACGTGACATT,0.4 kcal/mol
2,TGGTGCACGTGGTTGT,0.02 kcal/mol
3,AATGGCACGTGGCTTG,-0.16 kcal/mol
4,TTTAGCACGTGTGATC,-0.04 kcal/mol
5,TAGTTCACGTGAAGGC,0.47 kcal/mol
6,TTTGGCACGTGACATT,0.01 kcal/mol
7,AAAGACACGTGTGAGG,0.12 kcal/mol
8,GGAGACACGTGTGTAT,-0.02 kcal/mol
9,AGGGTCACGTGGGAGA,0.05 kcal/mol
10,GGGGTCACGTGGTACA,0.04 kcal/mol
11,AGTGTCACGTGGTAGG,-0.02 kcal/mol
12,CAGGGCACGTGGGGTT,-0.2 kcal/mol
13,AGATTCACGTGTAGCG,0.3 kcal/mol
14,TATCACACGTGGTCGG,0.11 kcal/mol
15,TGTTTCACGTGATCTT,0.32 kcal/mol
16,CGAAACACGTGGGGCG,0.02 kcal/mol
17,GGTACCACGTGTTTGT,0 kcal/mol
18,TTTGCCACGTGTGAAT,0.01 kcal/mol
19,ATGTTCACGTGGGCGG,0.17 kcal/mol
20,AGGTGCACGTGACGAG,0.14 kcal/mol
21,AAATACACGTGAGTTT,0.25 kcal/mol
22,GAGGGCACGTGGCGCG,-0.15 kcal/mol
23,AGTTCCACGTGTATTA,0.08 kcal/mol
24,GTTGTCACGTGGGGAA,0.12 kcal/mol
25,GGGTACACGTGATCGT,0.23 kcal/mol
26,AGGGACACGTGTGTAT,0.08 kcal/mol

row,Sequence,relative binding free energy
1,TGAAGCACGTGTGTTT,0.03 kcal/mol
2,TTTGTCACGTGGAAGG,0.13 kcal/mol
3,GGGGTCACGTGTCCGT,0.12 kcal/mol
4,GGTTACACGTGGCTGG,0.08 kcal/mol
5,GCGATCACGTGTGGTC,0.46 kcal/mol
6,TACGTCACGTGGCGTG,-0.04 kcal/mol
7,GTGCGCACGTGTGAGA,0.13 kcal/mol
8,CTGTGCACGTGTGATT,-0.13 kcal/mol
9,TAGCACACGTGTGTGG,0.02 kcal/mol
10,GTCGTCACGTGTGTTC,0.22 kcal/mol
11,AAGAGCACGTGGGCGT,-0.34 kcal/mol
12,GATTCCACGTGTAGGT,0.03 kcal/mol
13,GTAAGCACGTGTGTGA,0.01 kcal/mol
14,GGTACCACGTGGATTT,0.07 kcal/mol
15,TTAATCACGTGATGAA,0.43 kcal/mol
16,GGGTACACGTGGAGCG,0.04 kcal/mol
17,TGTAGCACGTGGTCGC,-0.23 kcal/mol
18,CGTTTCACGTGGTTTT,0.27 kcal/mol
19,ATAGACACGTGTGTTG,-0.14 kcal/mol
20,GATTGCACGTGTCTGG,0.03 kcal/mol
21,TAATTCACGTGTAATA,0.31 kcal/mol
22,TACTGCACGTGTAGTT,0.05 kcal/mol
23,TGCATCACGTGTGGGA,0.03 kcal/mol
24,TGGTACACGTGTGGCC,0.27 kcal/mol
25,ATGCGCACGTGGGTAT,-0.3 kcal/mol
26,TTTTGCACGTGATGGC,0.14 kcal/mol

row,Sequence,relative binding free energy
1,ATGGTCACGTGGGGAT,-0.12 kcal/mol
2,AATAGCACGTGTATTG,-0.05 kcal/mol
3,ATAGGCACGTGTTCAG,-0.13 kcal/mol
4,AGAGTCACGTGGAATT,0.28 kcal/mol
5,TCATTCACGTGAATAG,0.5 kcal/mol
6,CGTCGCACGTGTGTTG,0.04 kcal/mol
7,ATATTCACGTGTAGTG,0.1 kcal/mol
8,AAGATCACGTGGTAGT,0.13 kcal/mol
9,GTTATCACGTGAGTTT,0.29 kcal/mol
10,GCGTTCACGTGGGGGG,0.05 kcal/mol
11,TTGAGCACGTGATTAG,0.03 kcal/mol
12,TTGTGCACGTGATGAG,0.18 kcal/mol
13,GGGGACACGTGCTCGG,-0.04 kcal/mol
14,CCTTTCACGTGTTGTG,0.2 kcal/mol
15,CTTTTCACGTGAATGT,0.48 kcal/mol
16,AAGGTCACGTGGGCTT,-0.1 kcal/mol
17,TGGGACACGTGTGGTG,0.11 kcal/mol
18,ATTAACACGTGTTGGC,0.02 kcal/mol
19,TAGGACACGTGGAAGG,0.23 kcal/mol
20,ATGGCCACGTGCTGGG,-0.21 kcal/mol
21,GGTTGCACGTGTGCGA,0.06 kcal/mol
22,GAGGGCACGTGCTGCT,-0.08 kcal/mol
23,AGAGACACGTGTTAGT,0.03 kcal/mol
24,GTTGTCACGTGAATCG,0.26 kcal/mol
25,AATGGCACGTGTAAGG,-0.06 kcal/mol
26,GTGACCACGTGGTGTG,-0.07 kcal/mol

row,Sequence,relative binding free energy
1,GATGGCACGTGAAGGA,0.24 kcal/mol
2,GAGTTCACGTGGCGGA,0.43 kcal/mol
3,GTGGTCACGTGACGAG,0.26 kcal/mol
4,TAATGCACGTGGGGCG,-0.17 kcal/mol
5,CTGTCCACGTGAGGGT,0.23 kcal/mol
6,TGTCACACGTGGAGGA,0.05 kcal/mol
7,ATTATCACGTGTGAAT,0.24 kcal/mol
8,TAAAACACGTGTGTGG,0.01 kcal/mol
9,TGTGTCACGTGACAGG,0.12 kcal/mol
10,GATTTCACGTGGAGAG,0.37 kcal/mol
11,GTCGGCACGTGTGTGT,0.05 kcal/mol
12,GGCATCACGTGAGCGG,0.3 kcal/mol
13,GAGGGCACGTGGCGTA,-0.18 kcal/mol
14,AAAGGCACGTGTCGTA,-0.11 kcal/mol
15,ATGTGCACGTGATTGG,0.07 kcal/mol
16,AGTGTCACGTGGGTCT,-0.03 kcal/mol
17,TAGGACACGTGTTGGC,0.05 kcal/mol
18,GGGTCCACGTGCGTGG,-0.02 kcal/mol
19,GAAGGCACGTGTGCTG,-0.15 kcal/mol
20,TGTGGCACGTGTGTGC,-0.07 kcal/mol
21,CATCTCACGTGGGTTG,0.12 kcal/mol
22,GCGGTCACGTGAGAGG,0.3 kcal/mol
23,GGGTCCACGTGAGGAG,0.2 kcal/mol
24,GTTGTCACGTGGGCGG,-0.03 kcal/mol
25,GAATTCACGTGGTTAG,0.34 kcal/mol
26,TACGGCACGTGGAGGG,-0.1 kcal/mol

row,Sequence,relative binding free energy
1,GTGGGCACGTGGTGGC,-0.05 kcal/mol
2,AGTTCCACGTGAGGTA,0.23 kcal/mol
3,AGTACCACGTGTGGGT,-0.08 kcal/mol
4,CCGGTCACGTGTCTGG,0.29 kcal/mol
5,CAATTCACGTGGTGGG,0.29 kcal/mol
6,TCTGGCACGTGCGGTG,-0.15 kcal/mol
7,ACGGCCACGTGGGGGT,-0.19 kcal/mol
8,GCTTACACGTGTAGGG,0.14 kcal/mol
9,TGGCGCACGTGTAGAT,0.18 kcal/mol
10,GATGGCACGTGTCATG,-0.03 kcal/mol
11,GCGGCCACGTGGTGGG,-0.28 kcal/mol
12,ATCTTCACGTGTTTGT,0.23 kcal/mol
13,GGGTGCACGTGAAGGG,0.24 kcal/mol
14,ATTGACACGTGGGCAA,-0.07 kcal/mol
15,GGTTGCACGTGGTAGA,-0.06 kcal/mol
16,AGATGCACGTGCTGTT,-0.07 kcal/mol
17,TAGTGCACGTGTGGCA,-0.12 kcal/mol
18,CAGGGCACGTGGGGTC,-0.23 kcal/mol
19,TTTGCCACGTGGTTTC,-0.15 kcal/mol
20,CTAGGCACGTGGCAGG,-0.23 kcal/mol
21,GGGCGCACGTGCAAGG,0.02 kcal/mol
22,AGGTGCACGTGAGACT,0.19 kcal/mol
23,TGCGCCACGTGTTGTT,-0.03 kcal/mol
24,TGTTACACGTGTCAAT,0.15 kcal/mol
25,GGTTTCACGTGGCGGC,0.36 kcal/mol
26,TTGTACACGTGTGAGC,0.24 kcal/mol

row,Sequence,relative binding free energy
1,CTGGGCACGTGTGTTA,-0.07 kcal/mol
2,TGGCGCACGTGACGGT,-0.04 kcal/mol
3,TGTCTCACGTGGGTGC,0.17 kcal/mol
4,GGGGACACGTGAGTAG,0.3 kcal/mol
5,TTAATCACGTGTTGTC,0.18 kcal/mol
6,TAGGGCACGTGGAATA,-0.17 kcal/mol
7,TGAGGCACGTGTAGGA,-0.1 kcal/mol
8,TATCGCACGTGTGATG,0.01 kcal/mol
9,CGTGCCACGTGGGTCG,-0.17 kcal/mol
10,AGGGACACGTGATCTT,0.32 kcal/mol
11,TTTACCACGTGTATGG,-0.13 kcal/mol
12,CTTTTCACGTGTTATG,0.29 kcal/mol
13,TTAGTCACGTGGCGAA,0.05 kcal/mol
14,TGGGTCACGTGCCAAG,0.16 kcal/mol
15,GTGTGCACGTGTCAGA,0.01 kcal/mol
16,AGTTACACGTGGCGAT,0.01 kcal/mol
17,AGGGTCACGTGAGAGA,0.2 kcal/mol
18,ATAGTCACGTGTTATA,0.02 kcal/mol
19,GTGGTCACGTGACTTG,0.4 kcal/mol
20,ATTTTCACGTGTCATA,0.26 kcal/mol
21,TAGCTCACGTGGGGCG,0.01 kcal/mol
22,AGACGCACGTGGATGT,-0.08 kcal/mol
23,CAGGTCACGTGGATGG,0.14 kcal/mol
24,GGGGGCACGTGAGGTC,0.12 kcal/mol
25,GGTATCACGTGGGAGC,0.12 kcal/mol
26,TTGCACACGTGTTAGT,0.01 kcal/mol

row,Sequence,relative binding free energy
1,TTTGTCACGTGTCCGG,0.13 kcal/mol
2,CTGCTCACGTGTTTGT,0.19 kcal/mol
3,TGGGCCACGTGAGGAT,0.15 kcal/mol
4,ATGTACACGTGTATTA,0.07 kcal/mol
5,TTATACACGTGAATGG,0.2 kcal/mol
6,TTTTTCACGTGGTGAC,0.26 kcal/mol
7,TTTATCACGTGATATA,0.14 kcal/mol
8,TACGACACGTGGTTGT,-0.04 kcal/mol
9,TTGAGCACGTGGCGCG,-0.25 kcal/mol
10,TATTGCACGTGTCTAT,-0.02 kcal/mol
11,ATTGACACGTGGAGTC,0.08 kcal/mol
12,GGCGTCACGTGGAGGG,0.07 kcal/mol
13,AGATACACGTGTTGGG,-0.03 kcal/mol
14,AGGTTCACGTGGAAAT,0.31 kcal/mol
15,GTCGTCACGTGTTGTG,0.24 kcal/mol
16,TCGATCACGTGTATGT,0.28 kcal/mol
17,TGCAACACGTGTTTGG,-0.01 kcal/mol
18,GAGGGCACGTGGCTGG,-0.23 kcal/mol
19,GTGTTCACGTGGCGCA,0.36 kcal/mol
20,AAAGGCACGTGTGTTC,0.06 kcal/mol
21,TAGGTCACGTGTTTGC,0.02 kcal/mol
22,CTTTACACGTGTTGTA,0 kcal/mol
23,GTAATCACGTGAAGTT,0.25 kcal/mol
24,AGGATCACGTGTGAGT,0.23 kcal/mol
25,TATTTCACGTGTGGCG,0.27 kcal/mol
26,AAAGGCACGTGGTAAA,0.03 kcal/mol

row,Sequence,relative binding free energy
1,TACGTCACGTGTTAGG,0.1 kcal/mol
2,AGTTGCACGTGTTTTC,0.03 kcal/mol
3,CGGTGCACGTGGTCAG,-0.08 kcal/mol
4,GTTGTCACGTGTTTTG,0.25 kcal/mol
5,GGCTTCACGTGGTTTT,0.3 kcal/mol
6,TCGATCACGTGGGGTG,-0.1 kcal/mol
7,ATGTACACGTGGTTTA,-0.01 kcal/mol
8,TATTGCACGTGCACTG,0 kcal/mol
9,GGTTACACGTGGGTTA,0.19 kcal/mol
10,TTGATCACGTGTACTT,0.08 kcal/mol
11,AGGCTCACGTGTGAGA,0.28 kcal/mol
12,GTTCGCACGTGTTGGT,-0.03 kcal/mol
13,GTGTACACGTGTTATC,0.17 kcal/mol
14,GGAGGCACGTGGTCGG,-0.19 kcal/mol
15,AGGAGCACGTGCAGTG,-0.2 kcal/mol
16,ATTAACACGTGTGAGC,0.2 kcal/mol
17,GTTGGCACGTGGCAGA,-0.13 kcal/mol
18,TAATGCACGTGGAGAT,0.03 kcal/mol
19,TTGGGCACGTGTTGAG,-0.11 kcal/mol
20,GGGGTCACGTGGTAAA,0.2 kcal/mol
21,AGGGGCACGTGCCCGG,-0.19 kcal/mol
22,TTTAGCACGTGCAATA,0.02 kcal/mol
